The whole screen tested about 310,000 compounds, of which about 14,000 (4.5%) showed an effect of 50% or more. The effect is printed as a negative number. Some of the results follow.
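Further: peak tail current of the secondary pulse compared with the same well before compound.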

In this assay the target is human ether-à-go-go-related gene (hERG) potassium channel (human, UniProt Q12809). The assay can be described thus: primary screen, population patch clamp on CHO cells stably expressing hERG.
human ether-à-go-go-related gene (hERG) potassium channel, sequence (Q12809 whole entry, looked up): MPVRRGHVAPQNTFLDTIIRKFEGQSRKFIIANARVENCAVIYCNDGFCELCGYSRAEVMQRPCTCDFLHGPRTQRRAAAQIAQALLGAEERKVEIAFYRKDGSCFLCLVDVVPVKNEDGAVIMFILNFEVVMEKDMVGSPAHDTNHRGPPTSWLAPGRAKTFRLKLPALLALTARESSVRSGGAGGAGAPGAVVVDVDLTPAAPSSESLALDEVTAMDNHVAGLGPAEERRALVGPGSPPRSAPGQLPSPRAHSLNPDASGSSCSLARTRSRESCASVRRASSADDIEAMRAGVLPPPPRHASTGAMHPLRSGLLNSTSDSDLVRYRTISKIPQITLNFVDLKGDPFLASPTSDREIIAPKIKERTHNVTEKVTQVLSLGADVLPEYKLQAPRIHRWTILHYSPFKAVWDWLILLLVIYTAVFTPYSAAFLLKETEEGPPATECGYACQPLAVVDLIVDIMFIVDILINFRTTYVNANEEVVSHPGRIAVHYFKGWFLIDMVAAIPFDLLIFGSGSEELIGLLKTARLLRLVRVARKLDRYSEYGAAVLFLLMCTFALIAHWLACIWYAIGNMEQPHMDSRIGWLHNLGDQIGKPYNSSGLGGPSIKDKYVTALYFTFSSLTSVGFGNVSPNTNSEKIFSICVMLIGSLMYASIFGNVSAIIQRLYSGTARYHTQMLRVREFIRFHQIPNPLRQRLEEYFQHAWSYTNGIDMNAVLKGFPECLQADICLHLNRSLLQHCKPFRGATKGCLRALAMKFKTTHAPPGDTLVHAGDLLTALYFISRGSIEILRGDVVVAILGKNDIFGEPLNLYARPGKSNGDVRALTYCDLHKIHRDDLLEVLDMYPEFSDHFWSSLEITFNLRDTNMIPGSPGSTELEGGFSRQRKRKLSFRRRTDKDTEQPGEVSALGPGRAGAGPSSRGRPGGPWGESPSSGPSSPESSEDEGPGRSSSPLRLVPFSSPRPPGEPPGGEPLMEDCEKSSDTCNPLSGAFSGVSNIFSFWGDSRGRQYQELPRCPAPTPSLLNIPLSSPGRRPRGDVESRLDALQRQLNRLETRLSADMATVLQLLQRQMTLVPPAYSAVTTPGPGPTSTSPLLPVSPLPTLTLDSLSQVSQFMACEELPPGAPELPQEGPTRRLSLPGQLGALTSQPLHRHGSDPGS
With `O=C(c1ncn[nH]1)N1CCN(c2nc(-c3ccccc3)cs2)CC1`, the “hERG current change (%, negative = inhibition) at 10uM” value is 0.173%. For `CC(C)(C)C(=O)OCc1nc(-c2ccc(C(F)(F)F)cc2)cs1`, the “hERG current change (%, negative = inhibition) at 10uM” value was 19.4%. For `COc1ccc(CCN(C)C(=O)CN2C(=O)NC3(CCCCCC3)C2=O)cc1OC`, the “hERG current change (%, negative = inhibition) at 10uM” value was 11%. With `Cc1noc(/C=C/N(C)C)c1S(=O)(=O)N1CCc2ccccc21`, the “hERG current change (%, negative = inhibition) at 10uM” value is on record as -18.6%. For the molecule `Cc1cccc(NC(=O)CSc2nnc(NC(=O)CN3CCOCC3)s2)c1`, the “hERG current change (%, negative = inhibition) at 10uM” value is 2.9%. As for `Cc1ccc(N=C2SC(C(=O)NCCc3ccccc3)CC(=O)N2C)cc1C` (stereo not drawn), the “hERG current change (%, negative = inhibition) at 10uM” value is reported as -17.1%. As to `O=C(Nc1ccc2[nH]ccc2c1)c1cccs1`, the “hERG current change (%, negative = inhibition) at 10uM” value was 15.3%.

In the case of `O=C(CCC(=O)OCC(=O)c1ccc(F)cc1)NC1CCCCC1`, the “hERG current change (%, negative = inhibition) at 10uM” value is reported as -5.01%.

In the case of `Cc1ccc(CCNS(=O)(=O)c2cc3c(cc2Cl)NC(=O)CO3)cc1`, the “hERG current change (%, negative = inhibition) at 10uM” value is reported as -0.207%.

`O=c1cc(O)c2sc3nc(-c4ccccc4)cc(C(F)(F)F)c3c2[nH]1`: the “hERG current change (%, negative = inhibition) at 10uM” value amounted to 10.3%. As to `Cc1cc(C)c(C#N)c(SCC(=O)C2CC2)n1`, the “hERG current change (%, negative = inhibition) at 10uM” value is 8.95%. For the molecule `Cc1cc2occ(CC(=O)OCC(=O)Nc3sc4c(c3C#N)CCC(C)C4)c2cc1C` (stereo not drawn), the “hERG current change (%, negative = inhibition) at 10uM” value is 6.65%.

In the case of `O=C(NCc1ccccn1)c1cc2ccccn2n1`, the “hERG current change (%, negative = inhibition) at 10uM” value is on record as 5.52%. `O=C(CSc1nc(O)c(Cc2ccccc2)c(=O)n1-c1ccccc1)N1CCOCC1`: the “hERG current change (%, negative = inhibition) at 10uM” value is -7.02%. For `CC1Sc2ccc(S(=O)(=O)CCC(=O)N3CCN(c4cccc(Cl)c4)CC3)cc2NC1=O` (stereo not drawn) the value was -17.2%; for `Cc1nnc2n(C)c(=O)c3c4c(sc3n12)COC(C)(C)C4`, -4.87%; for `Cc1ccc(N2CCN(S(=O)(=O)c3ccc(F)c(C)c3)CC2)c(C)c1`, -6.88%. Turning to `COc1ccc(NC(=O)CC(c2ccc(F)cc2)c2ccc(OC)cc2)cc1` (stereo not drawn), the “hERG current change (%, negative = inhibition) at 10uM” value is listed as 23%. As to `CC(Oc1ccccc1)C(=O)N(CCC1=CCCCC1)c1c(N)n(Cc2ccccc2)c(=O)[nH]c1=O` (stereo not drawn), the “hERG current change (%, negative = inhibition) at 10uM” value is reported as -48.6%. In the case of `C/C(=N\Nc1cc(C)nc(NCc2ccccc2)n1)c1ccc([N+](=O)[O-])cc1`, the “hERG current change (%, negative = inhibition) at 10uM” value was 9.33%. With `COC(=O)C1C(O)=C(C=Nc2ccccc2)C(=O)CC1(C)C` (stereo not drawn) the figure was 9.3%; with `CCOC(=O)CSc1nc(N)c(C#N)cc1C#N`, 4.45%; with `CNC(=O)CN(C)S(=O)(=O)c1ccc(F)cc1`, -7.07%.

Regarding `COc1ccc(NC(=O)c2sc3nc(Cc4ccccc4)cc(C(F)(F)F)c3c2N)cc1OC`, the “hERG current change (%, negative = inhibition) at 10uM” value is reported as -2.56%.

Take `COc1ccc2nc(SCc3cccc(C)c3)nc(C)c2c1`: the “hERG current change (%, negative = inhibition) at 10uM” value is recorded as -10.9%. In the case of `CC(C(=O)Nc1ccccn1)N1C(=O)C2C3C=CC(C3)C2C1=O` (stereo not drawn), the “hERG current change (%, negative = inhibition) at 10uM” value was -10.4%.

`O=c1c2ccccc2nc(/C=C/c2ccc(Br)cc2)n1CCO`: the “hERG current change (%, negative = inhibition) at 10uM” value turned out to be 2.81%. For `CCOC(=O)CC1(NC(=O)c2cc(COc3ccc(F)c(F)c3)on2)CCCCC1` the value was -0.733%; for `CN(c1ccccc1)c1ccc(/C=c2\s/c(=C(/C#N)C(=O)C(C)(C)C)n(Cc3ccco3)c2=O)cc1`, 8.59%; for `O=[N+]([O-])c1ccccc1CNCCCCCO`, -6.35%. `CC12CCC(c3c(CO)nn(-c4ccccc4)c31)C2(C)C` (stereo not drawn): the “hERG current change (%, negative = inhibition) at 10uM” value is listed as -7.15%. With `O=C(COc1ccc(C(=S)N2CCCC2)cc1)Nc1ccc(F)cc1`, the “hERG current change (%, negative = inhibition) at 10uM” value is -15.1%. For the molecule `COc1ccc(COC(=O)c2ccc(Cl)c(S(=O)(=O)N3CC(C)OC(C)C3)c2)cc1` (stereo not drawn), the “hERG current change (%, negative = inhibition) at 10uM” value is 0.481%. For `CCCNS(=O)(=O)c1ccc(OC)c(Cl)c1Cl`, the “hERG current change (%, negative = inhibition) at 10uM” value is given as -9.11%.

As to `O=C(c1cc(Cl)nc2ccccc12)N(Cc1nnc(-c2ccc(Cl)cc2)o1)C1CC1`, the “hERG current change (%, negative = inhibition) at 10uM” value was -49%. Take `O=C(/C=C/c1ccc2c(c1)OCO2)NCc1cn2cc(Cl)ccc2n1`: the “hERG current change (%, negative = inhibition) at 10uM” value worked out at 1.03%. For `O=C(CSc1nnc(CNC(=O)c2c(F)cccc2Cl)o1)NCCc1ccccc1` the value was -1.59%. For the molecule `CNC(=S)Nc1ccc(Br)cc1`, the “hERG current change (%, negative = inhibition) at 10uM” value is given as -7.63%. For `O=C(NCc1ccccc1Cl)C1CCCN1C(=O)NCc1ccccc1` (stereo not drawn), the “hERG current change (%, negative = inhibition) at 10uM” value amounted to 14.4%.

`COn1c(-n2nc(C)cc2C)nc2ccccc2c1=O`: the “hERG current change (%, negative = inhibition) at 10uM” value amounted to 16%. For `CC(C)(C)N(Cc1ccccc1)C(=O)COC(=O)CSc1ccc([N+](=O)[O-])cc1` the value was 14.8%; for `COc1cc(S(N)(=O)=O)c(OC)cc1N`, 28.7%; for `CCCn1c(NCCO)nc2ccccc21`, 2.74%.

Regarding `Oc1ccc(NC(=S)Nc2ccc(O)cc2)cc1`, the “hERG current change (%, negative = inhibition) at 10uM” value came out at 9.21%. With `Cc1ccc2c(Cl)c(C(=O)NCCCn3ccnc3)sc2c1`, the “hERG current change (%, negative = inhibition) at 10uM” value is on record as -25.4%.
